Consider 31 sequences from paper PMC12820563, “FoxP3 forms a head-to-head dimer in vivo and stabilizes its multimerization on adjacent microsatellites”.

Some of the results follow.

This assay concerns the target T1, MBP-FoxP1dN (Mus musculus, UniProt P58462 326-579).
T1 sequence: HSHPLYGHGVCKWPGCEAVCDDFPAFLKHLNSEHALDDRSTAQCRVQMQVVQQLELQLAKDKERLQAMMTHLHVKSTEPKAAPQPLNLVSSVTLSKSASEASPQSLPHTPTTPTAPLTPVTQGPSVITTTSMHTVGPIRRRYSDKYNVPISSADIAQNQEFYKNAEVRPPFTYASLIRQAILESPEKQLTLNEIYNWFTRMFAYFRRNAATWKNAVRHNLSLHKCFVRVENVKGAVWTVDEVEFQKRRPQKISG
The assay is described as follows: PD-seq (MBP pull-down with sequencing); 20 mM Tris-HCl pH 7.5, 100 mM NaCl, 1.5 mM MgCl2, 0.4 uM protein, 0.1 uM dsDNA library, 30 min, room temperature, amylose pull-down; high values mean tight binding. The conditions noted are these: protein: recombinant; tags: His6-MBP; chain copies: 2; dsDNA, one strand shown. In a few lines:
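A degenerate double-stranded DNA library, filled in with Klenow, was added at 0.1 µM to 0.4 µM His6-MBP-tagged mouse FoxP3 or FoxP1 fragment lacking the N-terminus, expressed in E. coli. Incubation lasted 30 min at room temperature in Tris pH 7.5 buffer with NaCl and MgCl2, after which complexes were collected on amylose resin, washed three times, digested with proteinase K to free the DNA, barcoded by PCR and sequenced by Illumina. Binding is the pooled-replicate reads-per-million enrichment of pull-down over input.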
Turning to “GATGATTGTTCTCCCAGCTGATGAATTTCGCTCGTCGAGTAAACAAATTTTCCTAATCTTTCTGTTCAAGCGCCATCTAC”, the binding signal is 0.856 RPM ratio (pull-down/input).

In the case of “GATGATTGTTCTCCCAGCTGATGAATTTCATGCCTCGAGTAAACAAATTTTCCTAATCTTTCTGTTCAAGCGCCATCTAC”, the binding signal is 0.811 RPM ratio (pull-down/input).

For the sequence “GATGATTGTTCTCCCAGCTGATGAATTTCCGCACTCGAGTAAACAAATTTTCCTAATCTTTCTGTTCAAGCGCCATCTAC”, the binding signal is 0.803 RPM ratio (pull-down/input).

Consider “GATGATTGTTCTCCCAGCTGATGAATTAAAGGGCTCGAGTAAACAAATTTTCCTAATCTTTCTGTTCAAGCGCCATCTAC”, for which the binding signal was 0.81 RPM ratio (pull-down/input).

Turning to “GATGATTGTTCTCCCAGCTGATGAATTTTAATTTTCGAGTAAACAAATTTTCCTAATCTTTCTGTTCAAGCGCCATCTAC”, the binding signal is 1.17 RPM ratio (pull-down/input).

With “GATGATTGTTCTCCCAGCTGATGAATTTACGTTCTCGAGTAAACAAATTTTCCTAATCTTTCTGTTCAAGCGCCATCTAC”, the binding signal is 1.26 RPM ratio (pull-down/input).

Take “GATGATTGTTCTCCCAGCTGATGAATTCGCTGCCTCGAGTAAACAAATTTTCCTAATCTTTCTGTTCAAGCGCCATCTAC”: the binding signal was 0.822 RPM ratio (pull-down/input).

For “GATGATTGTTCTCCCAGCTGATGAATTGCGCCAGTCGAGTAAACAAATTTTCCTAATCTTTCTGTTCAAGCGCCATCTAC”, the binding signal was 0.985 RPM ratio (pull-down/input).

In the case of “GATGATTGTTCTCCCAGCTGATGAATTCTGTGTTTCGAGTAAACAAATTTTCCTAATCTTTCTGTTCAAGCGCCATCTAC”, the binding signal is 1.14 RPM ratio (pull-down/input).

“GATGATTGTTCTCCCAGCTGATGAATTGCAAGTCTCGAGTAAACAAATTTTCCTAATCTTTCTGTTCAAGCGCCATCTAC”: the binding signal was 1.11 RPM ratio (pull-down/input).

Regarding “GATGATTGTTCTCCCAGCTGATGAATTTAGCCCCTCGAGTAAACAAATTTTCCTAATCTTTCTGTTCAAGCGCCATCTAC”, the binding signal is 0.86 RPM ratio (pull-down/input).

Take “GATGATTGTTCTCCCAGCTGATGAATTAAGAACGTCGAGTAAACAAATTTTCCTAATCTTTCTGTTCAAGCGCCATCTAC”: the binding signal is 0.857 RPM ratio (pull-down/input).

For “GATGATTGTTCTCCCAGCTGATGAATTGCCCATTTCGAGTAAACAAATTTTCCTAATCTTTCTGTTCAAGCGCCATCTAC”, the binding signal is 0.968 RPM ratio (pull-down/input).

With “GATGATTGTTCTCCCAGCTGATGAATTTACTCGTTCGAGTAAACAAATTTTCCTAATCTTTCTGTTCAAGCGCCATCTAC”, the binding signal is 1.18 RPM ratio (pull-down/input).

For “GATGATTGTTCTCCCAGCTGATGAATTGATAGATTCGAGTAAACAAATTTTCCTAATCTTTCTGTTCAAGCGCCATCTAC”, the binding signal was 1.12 RPM ratio (pull-down/input).

“GATGATTGTTCTCCCAGCTGATGAATTAGCATCGTCGAGTAAACAAATTTTCCTAATCTTTCTGTTCAAGCGCCATCTAC”: the binding signal was 1.12 RPM ratio (pull-down/input).

As for “GATGATTGTTCTCCCAGCTGATGAATTCCATGTTTCGAGTAAACAAATTTTCCTAATCTTTCTGTTCAAGCGCCATCTAC”, the binding signal was 0.972 RPM ratio (pull-down/input).

Regarding “GATGATTGTTCTCCCAGCTGATGAATTATCCATGTCGAGTAAACAAATTTTCCTAATCTTTCTGTTCAAGCGCCATCTAC”, the binding signal is 0.987 RPM ratio (pull-down/input).

Consider “GATGATTGTTCTCCCAGCTGATGAATTCCGGGGATCGAGTAAACAAATTTTCCTAATCTTTCTGTTCAAGCGCCATCTAC”, for which the binding signal was 0.783 RPM ratio (pull-down/input).

With “GATGATTGTTCTCCCAGCTGATGAATTTCGTAAATCGAGTAAACAAATTTTCCTAATCTTTCTGTTCAAGCGCCATCTAC”, the binding signal is 1.23 RPM ratio (pull-down/input).

In the case of “GATGATTGTTCTCCCAGCTGATGAATTACTGATTTCGAGTAAACAAATTTTCCTAATCTTTCTGTTCAAGCGCCATCTAC”, the binding signal is 1.24 RPM ratio (pull-down/input).

As to “GATGATTGTTCTCCCAGCTGATGAATTATATGCGTCGAGTAAACAAATTTTCCTAATCTTTCTGTTCAAGCGCCATCTAC”, the binding signal was 1.27 RPM ratio (pull-down/input).

“GATGATTGTTCTCCCAGCTGATGAATTCGACGCCTCGAGTAAACAAATTTTCCTAATCTTTCTGTTCAAGCGCCATCTAC”: the binding signal was 0.928 RPM ratio (pull-down/input).

As to “GATGATTGTTCTCCCAGCTGATGAATTGTCATAGTCGAGTAAACAAATTTTCCTAATCTTTCTGTTCAAGCGCCATCTAC”, the binding signal was 1.1 RPM ratio (pull-down/input).

Consider “GATGATTGTTCTCCCAGCTGATGAATTGACATACTCGAGTAAACAAATTTTCCTAATCTTTCTGTTCAAGCGCCATCTAC”, for which the binding signal is 1.3 RPM ratio (pull-down/input).

Take “GATGATTGTTCTCCCAGCTGATGAATTCCAGTGGTCGAGTAAACAAATTTTCCTAATCTTTCTGTTCAAGCGCCATCTAC”: the binding signal was 0.837 RPM ratio (pull-down/input).

For “GATGATTGTTCTCCCAGCTGATGAATTCATTAAATCGAGTAAACAAATTTTCCTAATCTTTCTGTTCAAGCGCCATCTAC”, the binding signal is 1.09 RPM ratio (pull-down/input).

Consider “GATGATTGTTCTCCCAGCTGATGAATTAGTTCGGTCGAGTAAACAAATTTTCCTAATCTTTCTGTTCAAGCGCCATCTAC”, for which the binding signal was 0.768 RPM ratio (pull-down/input).

“GATGATTGTTCTCCCAGCTGATGAATTCCTGATCTCGAGTAAACAAATTTTCCTAATCTTTCTGTTCAAGCGCCATCTAC”: the binding signal was 0.831 RPM ratio (pull-down/input).

For “GATGATTGTTCTCCCAGCTGATGAATTAACTTAGTCGAGTAAACAAATTTTCCTAATCTTTCTGTTCAAGCGCCATCTAC”, the binding signal was 0.912 RPM ratio (pull-down/input).

With “GATGATTGTTCTCCCAGCTGATGAATTTCATCACTCGAGTAAACAAATTTTCCTAATCTTTCTGTTCAAGCGCCATCTAC”, the binding signal is 0.969 RPM ratio (pull-down/input).
